In PubChem BioAssay AID1745853 (National Center for Advancing Translational Sciences (NCATS), 2022):
The list shows a part of the results. Shown are side measurements of this screen, not its main read-out; they come without a call.

Assays:
Assay in all cases: Primary Screen for Target Class Profiling of Small Molecule Inhibitors of Methyltransferases
[1] = biological target: Glycine N-methyltransferase (Homo sapiens) (UniProt Q14749); details: purified enzyme, MTase-Glo SAH luminescence; measured here: GNMT inhibition; at 40 µM; stronger effect = lower value
Summary of the method: (§1)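 Each enzyme was reacted with SAM and its substrate, with compounds tested once at 40 uM; SAH formed was read by MTase-Glo luminescence.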

[2] = biological target: Guanidinoacetate N-methyltransferase (Homo sapiens) (UniProt Q14353); details: purified enzyme, MTase-Glo SAH luminescence; measured here: GAMT inhibition; at 40 µM; stronger effect = lower value
Summary of the method: as §1

[3] = biological target: Histamine N-methyltransferase (Homo sapiens) (UniProt P50135); details: purified enzyme, MTase-Glo SAH luminescence; measured here: HNMT inhibition; at 40 µM; stronger effect = lower value
Summary of the method: as §1

[4] = biological target: Nicotinamide N-methyltransferase (Homo sapiens) (UniProt P40261); details: purified enzyme, MTase-Glo SAH luminescence; measured here: NNMT inhibition; at 40 µM; stronger effect = lower value
Summary of the method: as §1

[5] = biological target: Phenylethanolamine N-methyltransferase (Homo sapiens) (UniProt P11086); details: purified enzyme, MTase-Glo SAH luminescence; measured here: PNMT inhibition; at 40 µM; stronger effect = lower value
Summary of the method: as §1
% is scaled to controls: 0 for no effect and ±100 for the full control effect.

Structure (SMILES) | activity change, negative = inhibition [1] [%] | activity change, negative = inhibition [2] [%] | activity change, negative = inhibition [3] [%] | activity change, negative = inhibition [4] [%] | activity change, negative = inhibition [5] [%]
O=C1N[C@H](CC(=O)N2CCN(Cc3ccccc3Cl)CC2)C(=O)Nc2ccccc21 | -2.28 | 4.98 | 0.295 | -3.97 | -11.9
CCN(Cc1noc(C)n1)C(=O)c1coc(COc2ccc3c(c2)OCO3)n1 | -2.71 | -2.04 | -0.51 | -3.09 | -3.86
c1cn2cc(-c3ccc4cn[nH]c4c3)nc(Nc3ccc(N4CCOCC4)cc3)c2n1 | -20.9 | -48.5 | -11.7 | -56.1 | -49.6
CC(C)NC(=O)c1sc(=S)n2c1[nH]c(=O)c1ccc(C(=O)NC(C)CCc3ccccc3)cc12 (stereo not given) | -11.7 | 0 | 2.2 | -16.6 | -7.63
CC1(C(=O)NCc2ccccc2)Cn2c(ccc2-c2ccco2)C(=O)N1Cc1ccccc1Cl (stereo not given) | -1.86 | 0 | 2.68 | -1.35 | 0.67
CC(C)(C)c1ccc(S(=O)(=O)NCCn2c(CCc3ccccc3)nc3ccccc32)cc1 | -3.22 | 0 | -2.61 | -11.3 | 0.59
COC(=O)N1CC(CN2C(=O)c3c(c(C)nn3-c3ccccc3)C2C)C1 (stereo not given) | -4.22 | -6.17 | -0.791 | -9.39 | -5.36
CCCN(CCC)S(=O)(=O)c1cc2[nH]c(=O)[nH]c2cc1C | 3.54 | 1.13 | 3.15 | -2.92 | 0.256
CC1OC2O[C@H]3[C@@H](OCC(O)[C@H]3O)OC(=O)C34CCC(C)(C)CC3C3=CCC5C6(C)CC(O)C(OC7OC(CO)C(O)C(O)C7O[C@@H]7OC[C@H](OC(=O)CC(C)(O)CC(=O)OC1C(OC1OCC(O)C(O)C1O)C2O)[C@@H](O)[C@H]7O)C(C)(CO)C6CCC5(C)C3(C)CC4 (stereo not given in full) | 2.01 | 22.9 | 3.89 | -3.78 | 4.4
CSCc1noc(Cn2nc(C)c3ccccc3c2=O)n1 | -3.06 | -4.77 | 0.633 | -4.24 | -0.87
CC(C)CNC(=O)c1ccc2c(=O)n(C)c3nn(Cc4ccccc4Cl)c(=O)n3c2c1 | -0.338 | 0.057 | 9.72 | -2.76 | 2.96
COc1c2c(c(C)c3c1C(=O)OC3)O[C@@]1(C)C[C@@H](O)[C@]34O[C@](OC)(CC[C@]3(C)[C@H]1C2)OC4(C)C | -0.742 | -2.93 | 0.127 | -29.5 | -1.06
Cc1cnc(CCNS(=O)(=O)c2cccc(F)c2)n1Cc1ccccc1 | -1.25 | -6.07 | -13.1 | -10.1 | -4.21
Cc1ccc(NC(=O)CSc2nnc3n(CCc4ccccc4)c(=O)c4ccccc4n23)cc1 | 4.62 | 0 | 8.53 | 5.42 | 4.98
